{"source": "paper PMC4336329", "about": "(PLoS ONE, 2015)", "note": "Out of some 310,000 compounds screened, about 2,200 (0.71%) showed an effect of 50% or more. The effect is printed as a negative number. Some of the results follow."}
{"target": "human ether-à-go-go-related gene (hERG) potassium channel (human, UniProt Q12809)", "sequence (Q12809 whole entry, looked up)": "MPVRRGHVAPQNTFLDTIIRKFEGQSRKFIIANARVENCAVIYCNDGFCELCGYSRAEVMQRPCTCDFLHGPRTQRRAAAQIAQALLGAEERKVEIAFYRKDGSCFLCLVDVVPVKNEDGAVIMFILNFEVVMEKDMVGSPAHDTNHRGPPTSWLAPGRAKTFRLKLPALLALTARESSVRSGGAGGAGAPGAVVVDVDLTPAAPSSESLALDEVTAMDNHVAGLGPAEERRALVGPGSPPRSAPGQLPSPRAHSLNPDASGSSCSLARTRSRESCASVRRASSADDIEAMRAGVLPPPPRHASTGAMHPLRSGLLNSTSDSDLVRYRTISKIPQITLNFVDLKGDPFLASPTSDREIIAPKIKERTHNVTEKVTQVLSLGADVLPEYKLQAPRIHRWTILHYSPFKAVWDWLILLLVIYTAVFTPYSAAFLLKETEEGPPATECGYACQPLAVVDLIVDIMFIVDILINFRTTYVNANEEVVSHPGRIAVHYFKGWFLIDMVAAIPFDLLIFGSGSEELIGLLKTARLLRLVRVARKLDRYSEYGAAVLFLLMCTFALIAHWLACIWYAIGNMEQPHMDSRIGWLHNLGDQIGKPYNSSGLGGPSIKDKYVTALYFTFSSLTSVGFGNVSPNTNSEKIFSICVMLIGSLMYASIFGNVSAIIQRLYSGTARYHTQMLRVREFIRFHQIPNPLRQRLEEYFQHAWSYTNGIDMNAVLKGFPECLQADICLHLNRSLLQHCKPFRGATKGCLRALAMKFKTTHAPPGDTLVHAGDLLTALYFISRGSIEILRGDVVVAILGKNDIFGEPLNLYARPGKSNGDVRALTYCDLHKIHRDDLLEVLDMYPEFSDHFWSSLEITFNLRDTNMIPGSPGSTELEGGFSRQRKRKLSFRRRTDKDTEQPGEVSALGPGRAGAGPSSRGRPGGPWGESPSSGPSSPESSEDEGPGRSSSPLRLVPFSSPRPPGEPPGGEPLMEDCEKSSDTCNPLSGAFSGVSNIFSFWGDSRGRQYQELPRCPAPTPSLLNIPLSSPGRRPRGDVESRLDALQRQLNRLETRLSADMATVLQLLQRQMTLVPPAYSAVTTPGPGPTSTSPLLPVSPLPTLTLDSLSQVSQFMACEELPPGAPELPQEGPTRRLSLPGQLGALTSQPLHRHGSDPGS", "assay": "primary screen, population patch clamp on CHO cells stably expressing hERG", "units": {"hERG current change (%, negative = inhibition) at 1uM": "%"}}
{"smiles": "Cn1c(=O)oc2cc(S(=O)(=O)NCCC(=O)N3CCc4ccccc43)ccc21", "hERG current change (%, negative = inhibition) at 1uM": 5}
{"smiles": "N/C(=N\\OC(=O)CCc1ccccc1)c1cccc(Br)c1", "hERG current change (%, negative = inhibition) at 1uM": 5.8}
{"smiles": "CCOC(=O)c1cc2sc(C)cc2n1CCCN1C(=O)c2ccccc2C1=O", "hERG current change (%, negative = inhibition) at 1uM": 4.91}
{"smiles": "O=C(Nc1cccc(OCC(=O)N2CCOCC2)c1)c1ccc(C(F)(F)F)cc1", "hERG current change (%, negative = inhibition) at 1uM": 5.06}
{"smiles": "CCOC(=O)c1cnc2ccc(C)cc2c1NCCN1CCOCC1.Cl", "hERG current change (%, negative = inhibition) at 1uM": -25.9}
{"smiles": "CCc1sc(C(=O)Nc2ccc3c(c2)OCCO3)cc1Br", "hERG current change (%, negative = inhibition) at 1uM": 15.7}
{"smiles": "COc1ccc(CCNC(=O)c2cccs2)cc1", "hERG current change (%, negative = inhibition) at 1uM": 12.1}
{"smiles": "O=C(NCCc1ccc2c(c1)OCCO2)c1ccc([N+](=O)[O-])cc1Cl", "hERG current change (%, negative = inhibition) at 1uM": -2.08}
{"smiles": "CC1C/C(=C/c2cccn2C)C(=O)/C(=C/c2cccn2C)C1", "note": "(centres unmarked)", "hERG current change (%, negative = inhibition) at 1uM": 9.71}
{"smiles": "CCC1CN(C(=O)NCc2ccccc2)c2cc(C)ccc2O1", "note": "(centres unmarked)", "hERG current change (%, negative = inhibition) at 1uM": 4.85}
{"smiles": "O=C(COC(=O)CCS(=O)(=O)c1ccc(Cl)cc1)Nc1ncc(Cl)cc1Cl", "hERG current change (%, negative = inhibition) at 1uM": 2.93}
{"smiles": "COc1ccc(OCc2cc(C(=O)NCC(C)Oc3cccnc3)no2)c(Cl)c1", "note": "(centres unmarked)", "hERG current change (%, negative = inhibition) at 1uM": 0.744}
{"smiles": "C=CCn1c(Cc2cccs2)nnc1SCC(=O)Nc1ccc(OC)cc1", "hERG current change (%, negative = inhibition) at 1uM": -8.42}
{"smiles": "Cc1ccccc1NC(=O)CN1CCC(NC(=O)Nc2ccccc2)CC1", "hERG current change (%, negative = inhibition) at 1uM": 3.92}
{"smiles": "CC(=O)Nc1cn(C(C)=O)c(C)n1", "hERG current change (%, negative = inhibition) at 1uM": 4.17}
{"smiles": "CCCCCCNS(=O)(=O)c1nc2nc(C)cc(C)n2n1", "hERG current change (%, negative = inhibition) at 1uM": 10.2}
{"smiles": "Cc1ccc(-n2cnc3scc(-c4cccs4)c3c2=O)cc1", "hERG current change (%, negative = inhibition) at 1uM": 12}
{"smiles": "CCC(=O)N1CCN(c2cc(N3CCCC3)c(F)cc2[N+](=O)[O-])CC1", "hERG current change (%, negative = inhibition) at 1uM": 4.27}
{"smiles": "Cc1csc(=O)n1CC(=O)OCC(=O)c1c(N)n(C)c(=O)n(C)c1=O", "hERG current change (%, negative = inhibition) at 1uM": 7.49}
{"smiles": "COCCn1c(C)cc(C2=NNC(=Nc3ccccc3)SC2)c1C", "hERG current change (%, negative = inhibition) at 1uM": -4.24}
{"smiles": "CC(O)(CS(=O)(=O)c1ccccc1)C(=O)Nc1cccc(C(F)(F)F)c1", "note": "(centres unmarked)", "hERG current change (%, negative = inhibition) at 1uM": -14.6}
{"smiles": "CC(C)c1ccccc1NC(=S)NC1CCN(Cc2ccccc2)CC1", "hERG current change (%, negative = inhibition) at 1uM": -11.6}
{"smiles": "Cc1ccc2nsnc2c1S(=O)(=O)N1CCN(C)CC1", "hERG current change (%, negative = inhibition) at 1uM": 10.8}
{"smiles": "OCCN1CCN(C(=S)Nc2ccc(SC(F)F)cc2)CC1", "hERG current change (%, negative = inhibition) at 1uM": 7.23}
{"smiles": "COc1cc(/C=C/C(=O)OCC(=O)NCC2CCCCC2)ccc1O", "hERG current change (%, negative = inhibition) at 1uM": 7.78}
{"smiles": "CCCCOc1ccc(C(=O)Nc2ccc(SC(F)F)cc2)cc1OC", "hERG current change (%, negative = inhibition) at 1uM": -3.49}
{"smiles": "CCOC(=O)C1=C(C)OC(N)=C(C#N)C12C(=O)Nc1ccc(C)cc12", "note": "(centres unmarked)", "hERG current change (%, negative = inhibition) at 1uM": 5.38}
{"smiles": "Cc1cccc(-c2nc(CS(=O)CC(=O)NCCc3ccccc3)c(C)o2)c1", "note": "(centres unmarked)", "hERG current change (%, negative = inhibition) at 1uM": 14}
{"smiles": "O=S(=O)(c1cccc(Br)c1)N1CCN(CCc2ccccc2)CC1", "hERG current change (%, negative = inhibition) at 1uM": 6.35}
{"smiles": "COc1ccc(N2CCN(c3ccc(Cl)nn3)CC2)cc1", "hERG current change (%, negative = inhibition) at 1uM": 0.746}
{"smiles": "O=C(N/N=C/c1ccc(-c2ccc([N+](=O)[O-])cc2)o1)[C@H]1C[C@@H]1c1ccccc1", "hERG current change (%, negative = inhibition) at 1uM": 8.54}
{"smiles": "CC(=O)Nc1cc(-c2nn3c(C)nnc3s2)ccc1C", "hERG current change (%, negative = inhibition) at 1uM": 14.7}
{"smiles": "COC(=O)Cc1c(O)ccn(Cc2ccc(OC)c(OC)c2)c1=O", "hERG current change (%, negative = inhibition) at 1uM": 5.21}
{"smiles": "C=C1C[C@]2(O)[C@@]3(C)CCC(=O)C(C)(C)C3=C(O)C(=O)[C@@]2(C)[C@@H]2C(=O)O[C@@](C)(C(=O)OC)C(=O)[C@@]12C", "hERG current change (%, negative = inhibition) at 1uM": 3.54}
{"smiles": "CC(N)c1ccc(Cl)cc1Cl", "note": "(centres unmarked)", "hERG current change (%, negative = inhibition) at 1uM": 9.93}
{"smiles": "Cc1ccc(NC(=O)CCC(=O)N2CCC(C)CC2)c([N+](=O)[O-])c1", "hERG current change (%, negative = inhibition) at 1uM": 5.15}
{"smiles": "COc1ccc(CCNC2CCN(C)CC2)cc1OC", "hERG current change (%, negative = inhibition) at 1uM": 9.67}
{"smiles": "Cc1ccc2c(CC(=O)NC3CCCc4ccccc43)coc2c1", "note": "(centres unmarked)", "hERG current change (%, negative = inhibition) at 1uM": 12.1}
{"smiles": "CCOc1ccc(/C=N/n2c(C)nc3ccccc3c2=O)cc1", "hERG current change (%, negative = inhibition) at 1uM": 14.8}
{"smiles": "COc1ccc(OCC(=O)Nc2ccc(N3CCOCC3)cc2)cc1", "hERG current change (%, negative = inhibition) at 1uM": 0.628}
{"smiles": "CN(C)S(=O)(=O)c1cccc(NC(=O)COC(=O)/C=C/c2ccc3c(c2)OCO3)c1", "hERG current change (%, negative = inhibition) at 1uM": 16.7}
{"smiles": "CCN1CCCC1CN(Cc1cc2c(C)cc(C)cc2[nH]c1=O)C(=O)NC1CCCCC1", "note": "(centres unmarked)", "hERG current change (%, negative = inhibition) at 1uM": -40.2}
{"smiles": "N=C1C(c2nc3ccccc3[nH]2)=C(O)CN1c1ccccc1", "hERG current change (%, negative = inhibition) at 1uM": 9}
{"smiles": "O=C(Nc1ccc(F)cc1)c1ccc(=O)[nH]n1", "hERG current change (%, negative = inhibition) at 1uM": 16}
